This is one part of the list. These are noisy estimates, calculated here from bound and input reads.

The target of the assay is T1, Pho4 (S. cerevisiae) (UniProt P07270).
T1 sequence: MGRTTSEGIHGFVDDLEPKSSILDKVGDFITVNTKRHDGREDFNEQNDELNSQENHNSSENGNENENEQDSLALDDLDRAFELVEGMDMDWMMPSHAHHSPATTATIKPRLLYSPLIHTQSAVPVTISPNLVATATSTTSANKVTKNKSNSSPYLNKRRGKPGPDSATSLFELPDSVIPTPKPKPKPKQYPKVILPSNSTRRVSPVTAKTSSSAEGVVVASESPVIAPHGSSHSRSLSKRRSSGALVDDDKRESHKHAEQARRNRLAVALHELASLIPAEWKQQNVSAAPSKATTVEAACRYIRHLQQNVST
The experiment in a line: relative binding free energy (BET-seq); higher = weaker binding. The following applies: reference: library average.
CGAGACACGTGGGGGG: the “relative binding free energy” value is -0.15 kcal/mol.
As to TACATCACGTGTGTAT, the “relative binding free energy” value is 0.04 kcal/mol.
With GTTAGCACGTGCTAGG, the “relative binding free energy” value was -0.14 kcal/mol.
In the case of TGGATCACGTGGGCGA, the “relative binding free energy” value was -0.07 kcal/mol.
Then CGTTGCACGTGGGGGC, with -0.06 kcal/mol; and ATAGGCACGTGAGCAG, with -0.02 kcal/mol; and GTTAACACGTGGGGTT, with -0.05 kcal/mol.
Consider TTTTCCACGTGGCAGG, for which the “relative binding free energy” value is -0.04 kcal/mol.
Regarding GTGCACACGTGGGGTT, the “relative binding free energy” value stood at 0.02 kcal/mol.
For AGGGCCACGTGGGGAC, the “relative binding free energy” value was -0.21 kcal/mol.
As for AGGGCCACGTGAGTTT, the “relative binding free energy” value amounted to 0.04 kcal/mol.
With ACAGTCACGTGTTGTG, the “relative binding free energy” value is 0.11 kcal/mol.
On to TAGGGCACGTGCTAAG, for which the “relative binding free energy” value was -0.14 kcal/mol.
For the sequence AGAGGCACGTGGCGGA, the “relative binding free energy” value is -0.16 kcal/mol.
For TCGGGCACGTGTTGTT, the “relative binding free energy” value is -0.05 kcal/mol.
AGTGGCACGTGCAGTA: the “relative binding free energy” value was -0.11 kcal/mol.
Then TGCAGCACGTGTTTAA, with -0.12 kcal/mol.
TTCGTCACGTGTTGCG: the “relative binding free energy” value came to 0.13 kcal/mol.
Consider CTATGCACGTGATGGA, for which the “relative binding free energy” value turned out to be 0.12 kcal/mol.
Regarding TTAGGCACGTGGTCTA, the “relative binding free energy” value was -0.23 kcal/mol.
With TTGGTCACGTGAGGGA, the “relative binding free energy” value was 0.28 kcal/mol.
GGTTGCACGTGTTGGT: the “relative binding free energy” value was determined as 0.09 kcal/mol.
Regarding GTCGGCACGTGTCATG, the “relative binding free energy” value stood at 0.09 kcal/mol.
In the case of TGGTGCACGTGAGGCC, the “relative binding free energy” value was 0.18 kcal/mol.
On to GTCTTCACGTGCGTGG, for which the “relative binding free energy” value turned out to be 0.05 kcal/mol.
In the case of GTGGCCACGTGTGGTG, the “relative binding free energy” value is -0.03 kcal/mol.
For TATCGCACGTGTTGTG, the “relative binding free energy” value is -0.21 kcal/mol.
On to ACTGCCACGTGGGGGT, for which the “relative binding free energy” value is -0.32 kcal/mol.
For the sequence TTTCACACGTGGGATA, the “relative binding free energy” value was -0.02 kcal/mol.
In the case of ATTTACACGTGTTAAT, the “relative binding free energy” value was 0.13 kcal/mol.
As for CGATACACGTGGGAGT, the “relative binding free energy” value is -0.05 kcal/mol.
Then ATATGCACGTGGGGAT, with -0.07 kcal/mol; and TAAGACACGTGCGGTG, with -0.09 kcal/mol.
As to CGGTTCACGTGCGGCT, the “relative binding free energy” value stood at 0.36 kcal/mol.
Take GAGGGCACGTGTATTA: the “relative binding free energy” value is -0.07 kcal/mol.
Turning to TTAATCACGTGGTGTG, the “relative binding free energy” value worked out at 0.13 kcal/mol.
Then ATTTACACGTGTGTCG, with 0.16 kcal/mol; and TGGGACACGTGTGCAG, with -0.11 kcal/mol.
In the case of CATATCACGTGGGAGG, the “relative binding free energy” value stood at 0.12 kcal/mol.
On to TGGACCACGTGTTGTG, for which the “relative binding free energy” value is -0.15 kcal/mol.
Consider AAAGGCACGTGTGGTA, for which the “relative binding free energy” value turned out to be 0.01 kcal/mol.
TAAAGCACGTGTAGGG: the “relative binding free energy” value is -0.15 kcal/mol.
Then AGATGCACGTGGAGCG, with 0.12 kcal/mol.
With CGAGGCACGTGAGGTT, the “relative binding free energy” value was 0.2 kcal/mol.
For the sequence AGGGTCACGTGGAGCG, the “relative binding free energy” value came to 0.1 kcal/mol.
As for TAGATCACGTGAGAAT, the “relative binding free energy” value worked out at 0.57 kcal/mol.
In the case of TGACTCACGTGATGGG, the “relative binding free energy” value is 0.23 kcal/mol.
As to GGTGGCACGTGTAGGG, the “relative binding free energy” value turned out to be 0.03 kcal/mol.
For the sequence TAGTGCACGTGGGGGA, the “relative binding free energy” value is -0.25 kcal/mol.
CACATCACGTGGGGTG: the “relative binding free energy” value worked out at 0.06 kcal/mol.
As for TGTGCCACGTGTATTA, the “relative binding free energy” value was -0.12 kcal/mol.
As to AACGACACGTGGTGGG, the “relative binding free energy” value was -0.04 kcal/mol.
On to TGTCTCACGTGATAAT, for which the “relative binding free energy” value is 0.28 kcal/mol.
GTAGGCACGTGATTCG: the “relative binding free energy” value amounted to 0 kcal/mol.
Take GTAGTCACGTGTTGCT: the “relative binding free energy” value came out at 0.02 kcal/mol.
On to GTCTACACGTGTGAGG, for which the “relative binding free energy” value was determined as 0.2 kcal/mol.
CTTTTCACGTGTAGGT: the “relative binding free energy” value came to 0.15 kcal/mol.
Then ATAGTCACGTGGAGAG, with 0.14 kcal/mol; and ATTGTCACGTGTCATT, with 0.05 kcal/mol; and AGTAGCACGTGTGGCT, with -0.15 kcal/mol.
Then GGTTTCACGTGTGCGG, with 0.42 kcal/mol.
For GGAGTCACGTGAAGAA, the “relative binding free energy” value was found to be 0.56 kcal/mol.
Then GTGCGCACGTGAGTTA, with 0.1 kcal/mol; and AGCTTCACGTGGGTTA, with 0.19 kcal/mol.
As for TGATCCACGTGGCGGT, the “relative binding free energy” value is -0.02 kcal/mol.
For GTGGTCACGTGTGTGG, the “relative binding free energy” value came out at 0.19 kcal/mol.
Then GATGACACGTGTAGTG, with 0.16 kcal/mol; and CAAGGCACGTGTCGGG, with -0.04 kcal/mol.
With ATGGGCACGTGGCGAC, the “relative binding free energy” value is -0.12 kcal/mol.
Then GAGAGCACGTGTTAGG, with -0.11 kcal/mol; and TAGTACACGTGTCTTT, with 0.07 kcal/mol; and AGAGACACGTGTGTTG, with 0 kcal/mol.
With GTTGACACGTGAACGG, the “relative binding free energy” value was determined as 0.31 kcal/mol.
On to TGTCTCACGTGGGGCT, for which the “relative binding free energy” value was 0.09 kcal/mol.
Take CGGTGCACGTGATCGG: the “relative binding free energy” value was -0.08 kcal/mol.
Then ATGTGCACGTGGAGCT, with -0.01 kcal/mol; and AGTTCCACGTGGGGCG, with -0.21 kcal/mol; and GAGGTCACGTGCTGAG, with 0.23 kcal/mol.
For the sequence AGGTGCACGTGACTTG, the “relative binding free energy” value came to 0.05 kcal/mol.
Take TGTGGCACGTGTTTCA: the “relative binding free energy” value was -0.04 kcal/mol.
On to ATCATCACGTGGTATT, for which the “relative binding free energy” value was 0.05 kcal/mol.
Then GATAGCACGTGGTGTC, with -0.01 kcal/mol; and TAGGGCACGTGGCCGT, with -0.31 kcal/mol; and AAAGTCACGTGGCGTG, with -0.05 kcal/mol.
Regarding GTACACACGTGAGGTT, the “relative binding free energy” value worked out at 0.23 kcal/mol.
Then TCGGCCACGTGTTGGG, with -0.09 kcal/mol; and TTACTCACGTGGCAGG, with 0.16 kcal/mol.
As for GTCTACACGTGAATGG, the “relative binding free energy” value was found to be 0.28 kcal/mol.
Then TTCTTCACGTGTTTAA, with 0.15 kcal/mol; and GCGTGCACGTGTGGTT, with 0.08 kcal/mol; and TGCTGCACGTGGGCTT, with -0.18 kcal/mol.
In the case of ACTTGCACGTGCGGGT, the “relative binding free energy” value was -0.05 kcal/mol.
Then TATTTCACGTGTAGGT, with 0.25 kcal/mol.
With ACCGTCACGTGGGGGG, the “relative binding free energy” value is -0.07 kcal/mol.
For the sequence TTCGGCACGTGGAGGG, the “relative binding free energy” value is -0.13 kcal/mol.
For CTTATCACGTGCGGGT, the “relative binding free energy” value was 0.01 kcal/mol.
In the case of AGAGACACGTGTTCGG, the “relative binding free energy” value was determined as 0.08 kcal/mol.
Turning to GTGCTCACGTGGATTT, the “relative binding free energy” value was found to be 0.26 kcal/mol.
Turning to ACTGTCACGTGTGCGG, the “relative binding free energy” value came to 0.14 kcal/mol.
Then GATAGCACGTGCGTGG, with -0.07 kcal/mol.
As for GGGGTCACGTGAGTTT, the “relative binding free energy” value was 0.37 kcal/mol.
On to AGGGTCACGTGAGGTC, for which the “relative binding free energy” value was 0.32 kcal/mol.
TTGGACACGTGATTGA: the “relative binding free energy” value worked out at 0.22 kcal/mol.
With AGACACACGTGGGGTT, the “relative binding free energy” value is -0.13 kcal/mol.
Take TCAAGCACGTGAAGGG: the “relative binding free energy” value was found to be 0.27 kcal/mol.
On to ATTAGCACGTGTCATT, for which the “relative binding free energy” value is -0.1 kcal/mol.
Then TTATACACGTGGTTTG, with -0.01 kcal/mol.
Take GAGAGCACGTGGTAGT: the “relative binding free energy” value is -0.11 kcal/mol.
Then GAAGTCACGTGAATGG, with 0.36 kcal/mol.
TGAGACACGTGGTGAA: the “relative binding free energy” value was -0.04 kcal/mol.
Regarding TTTTTCACGTGAGCGT, the “relative binding free energy” value was 0.21 kcal/mol.
On to GTGCACACGTGGAGTT, for which the “relative binding free energy” value turned out to be 0.03 kcal/mol.
For the sequence ATAGGCACGTGGGGCG, the “relative binding free energy” value is -0.19 kcal/mol.
GTTATCACGTGGTGCT: the “relative binding free energy” value is 0.09 kcal/mol.
Then GCGTGCACGTGGTTGA, with -0.07 kcal/mol.

These data come from the BET-seq Pho4 binding data (Le et al. 2018).
